Values after ≈ are worked out from the molar mass of the structure shown. Values joined by “and” are separate entries in the source; they are usually repeats but may differ in a detail not shown here. Identical values can stand only once.
Key:
Experiment in all cases: ≥ marks a high value that may be exact or a test limit, other limits are often not marked
[1] = tested on: Cryptococcus neoformans KCCM 50544
[2] = tested on: Staphylococcus aureus CCARM 3543
[3] = tested on: Staphylococcus aureus KCTC 1621
[4] = tested on: Candida albicans KCTC 7121
[5] = tested on: Bacillus subtilis KCCM 11495
[6] = tested on: Salmonella typhimurium KCTC 1926
[7] = tested on: Fusarium oxysporum KACC 40902
[8] = tested on: Bacillus megaterium KCTC 1096
[9] = tested on: Bacillus subtilis KCTC 1918
[10] = tested on: Bacillus subtilis KCTC 3068
[11] = tested on: Pyricularia grisea KACC 40425
[12] = tested on: Acinetobacter baumannii b-02
[13] = tested on: Candida albicans KCTC 7728
[14] = tested on: Staphylococcus aureus CCARM 3570
[15] = tested on: Acinetobacter baumannii b-01
[16] = tested on: Aspergillus terreus KCTC 6178
[17] = tested on: Aspergillus niger KCTC 6461
[18] = tested on: Trichosporon beigelii KCTC 7707
[19] = tested on: Acinetobacter baumannii b-03
[20] = tested on: Pseudomonas aeruginosa
[21] = tested on: Candida albicans KCTC 7729
[22] = tested on: Staphylococcus epidermidis KCTC 1917
[23] = tested on: Candida albicans KCTC 7965
[24] = tested on: Candida albicans KCTC 7270
[25] = tested on: Geotrichum candidum KACC 40354
[26] = tested on: Escherichia coli KCCM 11569
[27] = tested on: Pseudomonas aeruginosa KCTC 1637
[28] = tested on: Acinetobacter baumannii b-04
[29] = tested on: Proteus vulgaris
[30] = tested on: Escherichia coli KCTC 1682

Q: For CC[C@H](C)[C@H](NC(=O)[C@H](CCCCN)NC(=O)[C@H](CCCCN)NC(=O)[C@H](Cc1ccccc1)NC(=O)[C@H](CC(C)C)NC(=O)[C@H](CCCCN)NC(=O)[C@H](Cc1c[nH]c2ccccc12)NC(=O)[C@@H](N)CCCCN)C(=O)N1CCC[C@H]1C(=O)N[C@@H](CCCCN)C(=O)N[C@@H](Cc1ccccc1)C(=O)N[C@@H](CC(C)C)C(=O)N[C@@H](Cc1cnc[nH]1)C(=O)N[C@@H](CC(C)C)C(=O)N[C@@H](C)C(=O)N[C@@H](CCCCN)C(=O)N[C@@H](CCCCN)C(=O)N[C@@H](Cc1ccccc1)C(N)=O [KWKLFKKIPKFLHLAKKF], which MIC [1] is on record?
A: 19.7 µM (≈ 45.2 µg/mL)

Q: What about the MIC [2] of the same compound?
A: 9.83 µM (≈ 22.6 µg/mL)

Q: What about the MIC [3] of the same compound?
A: 2 µM (≈ 4.6 µg/mL)

Q: What about the MIC [4] of the same compound?
A: 0.435 µM (≈ 1 µg/mL)

Q: What about the MIC [5] of the same compound?
A: 0.615 µM (≈ 1.41 µg/mL)

Q: What about the MIC [6] of the same compound?
A: 1 µM (≈ 2.3 µg/mL)

Q: And the MIC [7]?
A: 2.46 µM (≈ 5.65 µg/mL)

Q: And the MIC [8]?
A: 0.78 µM (≈ 1.79 µg/mL)

Q: What about the MIC [9] of the same compound?
A: 0.78 µM (≈ 1.79 µg/mL)

Q: And the MIC [10]?
A: 1 µM (≈ 2.3 µg/mL)

Q: What about the MIC [11] of the same compound?
A: 2.46 µM (≈ 5.65 µg/mL)

Q: And the MIC [12]?
A: 10.9 µM (≈ 25 µg/mL)

Q: What about the MIC [13] of the same compound?
A: 2.46 µM (≈ 5.65 µg/mL)

Q: What about the MIC [14] of the same compound?
A: 9.83 µM and 27.8 µM and 19.7 µM

Q: And the MIC [15]?
A: 2.72 µM (≈ 6.25 µg/mL)

Q: What about the MIC [16] of the same compound?
A: 27.8 µM (≈ 64 µg/mL)

Q: What about the MIC [17] of the same compound?
A: 27.8 µM (≈ 64 µg/mL)

Q: And the MIC [18]?
A: 1.23 µM (≈ 2.83 µg/mL)

Q: And the MIC [19]?
A: 5.43 µM (≈ 12.5 µg/mL)

Q: What about the MIC [20] of the same compound?
A: 10.9 µM (≈ 25 µg/mL)

Q: What about the MIC [21] of the same compound?
A: 1.23 µM (≈ 2.83 µg/mL)

Q: What about the MIC [22] of the same compound?
A: 1 µM (≈ 2.3 µg/mL)

Q: And the MIC [23]?
A: 19.7 µM (≈ 45.2 µg/mL)

Q: And the MIC [24]?
A: 4.92 µM (≈ 11.3 µg/mL)

Q: And the MIC [25]?
A: 4.92 µM (≈ 11.3 µg/mL)

Q: What about the MIC [26] of the same compound?
A: 0.435 µM (≈ 1 µg/mL)

Q: What about the MIC [27] of the same compound?
A: 1 µM (≈ 2.3 µg/mL)

Q: And the MIC [28]?
A: 5.43 µM (≈ 12.5 µg/mL)

Q: And the MIC [29]?
A: 3.12 µM (≈ 7.19 µg/mL)

Q: And the MIC [30]?
A: 2 µM (≈ 4.6 µg/mL)

From DBAASP
